We go through 55 compounds from PubChem BioAssay (NCI).

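Compound exposure: 48 hours, 5 concentrations, 96-well plates. The concentration for 50% growth inhibition is given as GI50. At the TGI there is no net growth.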

In this assay the test system is NCI-H322M lung. Description: growth of human tumour cells (NCI), 48 h.

`Cc1ccc(S(=O)(=O)N2CCN(CCO)CCN(S(=O)(=O)c3ccc(C)cc3)CCN(CCO)CC2)cc1` showed a TGI of 29.7 µM. `CC[C@H](C)[C@H](NC(=O)c1nccn1C)C(=O)N(C)[C@H](C[C@@H](OC(C)=O)c1nc(C(=O)N[C@@H](Cc2ccccc2)C[C@H](C)C(=O)OC)cs1)C(C)C`: the GI50 is 2.35 µM and the TGI was > 33.3 µM. With `CCCCCCCCCCCCCCC(O)C1CCC(C(O)CCC(O)CCCCCC(O)CC2=CC(C)OC2=O)O1` (centres undefined), the TGI was 17.2 µM. As for `O=C(O)Cc1cc(=O)[nH]c2c1C(=O)CCC2`, the TGI is > 100 µM.

Regarding `CCOC(=O)/C(C#N)=C(N)/C(=N\Nc1cccc(C(F)(F)F)c1)C(=O)OCC`, the TGI is > 100 µM. Still for that read-out and setting: in the case of `COc1ccc(C2=NNC(=O)c3ccccc3N2c2nc(-c3cccs3)nc3ccc(Br)cc23)cc1` it was > 100 µM; in that of `O=C(O)CCCc1ccc2c(c1)CC1(C2)Cc2ccc(CCCC(=O)O)cc2C1`, > 100 µM; in that of `CN(C)C=Nc1nncc2n[nH]nc12`, > 100 µM. The compound `C[C@]12CC[C@H]3[C@@H](CCC4=C[C@@H](OC5OCC(OC6OC(CO)C(O)C(O)C6O)C(O)C5O)CC[C@@]43C=O)[C@@]1(O)CCC2C1=CC(=O)OC1` (some centres undefined) came in with a TGI of 5.46 µM. `c1ccc(CNc2ncnc3n[nH]nc23)cc1`: the TGI is > 100 µM. On to `CSc1ccccc1P(CCP(c1ccccc1SC)c1ccccc1SC)c1ccccc1SC`, for which the TGI was > 100 µM.

As to `c1ccc2c(c1)c1c3n2-c2cc(on2)C3CCC1` (centres undefined), the TGI is > 100 µM. Same read-out and setting: with `C[C@@H]1OCC(O)C([C@H]2OC(c3ccccc3)=N[C@H]2CO)O1` (some centres undefined) the figure was > 100 µM; with `[N-]=[N+]=Nc1c(Br)c(=O)[nH]c(=O)n1COCCO`, > 100 µM. Take `CN(C)CCNc1c2c(c(NCCN(C)C)c3c(CO)c[nH]c13)C(=O)c1ccccc1C2=O`: the GI50 is 1.04 µM and the TGI is 5.26 µM. Turning to `O=C1C2=C(c3ccccc31)C(c1ccc(F)cc1)N1C(=O)CCSC1=N2` (centres undefined), the TGI was > 100 µM.

`C[C@@H](c1ccccc1)N(CC#N)C1CCC[C@H]1O` (some centres undefined): the TGI is > 100 µM. On the same count and under the same terms, with `COc1cc(CC2CC(c3ccc4c(c3)OCO4)OC2=O)cc(OC)c1OC` (centres undefined) the figure was > 100 µM; with `CCCCCCCCC[n+]1cccc(C2C(C(=O)OCC)=C(C)NC(C)=C2C(=O)OCC)c1`, 30.8 µM; with `Cc1cccc(C(O)c2cccnc2)c1O` (centres undefined), > 100 µM.

Turning to `O=C(NCc1cccnc1)C(=O)NCc1cccnc1`, the TGI is > 100 µM. On the same count and under the same terms, in the case of `N#Cc1c(-c2ccc(Cl)cc2)cc(-c2nc3ccccc3[nH]2)nc1N` it was 69.8 µM. Still for that read-out and setting: with `O=C(NC/C=C/Br)NC1CCNc2ccccc21` (centres undefined) the figure was > 100 µM. On the same count and under the same terms, in the case of `c1ccc(-c2cnc3nc4ccccc4nc3n2)cc1` it was 20.4 µM; in that of `Cc1nnc2sc(-c3ccc([N+](=O)[O-])o3)nn12`, 61.1 µM. Turning to `NC1CCCCC1N.O=S(=O)([O-])CCCN1CCN(CCO)CC1.O=S(=O)([O-])CCCN1CCN(CCO)CC1.[Pt+4]`, the GI50 is 12 µM and the TGI was > 100 µM. Take `Oc1ccc2ccccc2c1OCc1nnc(CCCCCCCCc2nnc(COc3c(O)ccc4ccccc34)o2)o1`: the TGI is > 100 µM. On to `CCCCCCCCCCCCCCCCNc1ccn(C2CC(OP(=O)(O)OCC3OC(n4cc(CC)c(=O)[nH]c4=O)CC3O)C(CO)O2)c(=O)n1` (centres undefined), for which the TGI was > 100 µM. The same measure, in the same setting: in the case of `O=c1cccccc1NCCNc1cccccc1=O` it was > 100 µM; in that of `CC(C)c1nccn1Cc1ccc(Cl)cc1Cl`, > 100 µM. As to `O=c1oc2cc(OS(=O)(=O)c3ccccc3)ccc2c2c1CCCCC2`, the GI50 was > 100 µM and the TGI is > 100 µM.

As for `COc1cc(/C=C\c2cc(OC)c(OC)c(OC)c2)cc(NS(=O)(=O)c2cccc(Cl)c2)c1OC`, the GI50 is 0.373 µM and the TGI was > 100 µM.

Regarding `COC(=O)C1[C@H](C(=O)OC)C1(Br)CBr` (some centres undefined), the TGI was > 100 µM. For `Cc1[nH]n(-c2ccccc2)c(=O)c1C(=O)c1ccccc1`, the GI50 is > 25 µM and the TGI is > 25 µM.

Consider `Brc1ccc2c(c1)c(-c1nc(-c3c[nH]c4ncccc34)cs1)cn2CCCN1CCCCC1`, for which the GI50 was 1.7 µM and the TGI was determined as 3.15 µM.

As to `Cc1nc2sc(C(=O)Nc3cccc(Cl)c3C)c(N)c2cc1C(C)O` (centres undefined), the GI50 was 0.393 µM and the TGI is > 100 µM. With `Cc1ccc([N+](=O)[O-])cc1NC(=O)C(=O)C1CCC2=C(Sc3ccccc3N2)C1=O` (centres undefined), the TGI is > 100 µM. For `COc1cc(CNC(=O)CCSc2nc3ccccc3c(=O)n2Cc2cc(OC)c(OC)c(OC)c2)cc(OC)c1OC`, the GI50 is 23 µM and the TGI is > 100 µM. With `O=c1oc2ccccc2c(O)c1Cc1cccc(Cc2c(O)c3ccccc3oc2=O)c1`, the TGI was > 100 µM.

Consider `CC1(C)Oc2ccc3c(=O)c4ccccc4oc3c2C1C(=O)O` (centres undefined), for which the TGI is > 100 µM. Consider `O=c1/c(=C/c2ccc(-c3ccc(Cl)cc3Cl)o2)sc2n1[C@@H](c1ccc3c(c1)OCO3)C=C(c1cc(F)c(Cl)cc1Cl)N=2`, for which the TGI was > 100 µM.

`N[C@H](C(=O)O)[C@@H](Cl)CC(=O)O`: the TGI is > 100 µM.

`CCC1(CC)C(=O)[N-]C(=O)[N-]C1=O.[Au+].[Au+].c1ccc([PH+](c2ccccc2)c2ccccc2)cc1.c1ccc([PH+](c2ccccc2)c2ccccc2)cc1`: the GI50 is 1.69 µM and the TGI was 3.06 µM. As for `COc1ccc(C2NC(=O)Nc3c2c(=O)oc2c3ccc3ccccc32)cc1` (centres undefined), the TGI is > 100 µM.

Regarding `O=C(Nc1ccc(-c2ccnc(Nc3ccc(N4CCOCC4)cc3)n2)cc1)C1CCCN1` (centres undefined), the GI50 was 10.6 µM and the TGI stood at 36.3 µM. With `COc1ccc(/C=C/c2cnc3ccccc3n2)cc1OC`, the TGI was > 100 µM. Consider `N#Cc1ncc(N2C(=O)C3(CCC3)N(c3ccc(OC4CCNCC4)nc3)C2=S)cc1C(F)(F)F`, for which the GI50 was 88.7 µM and the TGI is > 100 µM. As for `CC1(C)CC(=O)C(=CN2C(=O)CNC2=S)C(=O)C1`, the TGI is > 100 µM.

Compound `O=C1C2=C(c3ccccc31)C(c1ccc(Cl)cc1)NC(=S)N2` (centres undefined) displayed a TGI of 48.2 µM. Still for that read-out and setting: in the case of `COC(=O)C(C(=O)OC)C1CC(=O)c2c(Br)sc(Br)c21` (centres undefined) it was 41.3 µM. As to `FC(F)(F)c1cc(NC2=NCCN=C(Nc3cc(C(F)(F)F)cc(C(F)(F)F)c3)SS2)cc(C(F)(F)F)c1`, the GI50 was 8.82 µM and the TGI was found to be 32.3 µM. On to `O=C(Nc1ccccc1C(=O)Nc1nccs1)c1ccccc1`, for which the TGI is > 100 µM.

Turning to `O=C(O)c1cc2c(c3ccsc13)-c1ccccc1CC2`, the GI50 is 23.9 µM and the TGI was found to be 77.3 µM. Turning to `COc1ccc(C(C)NNC(=O)c2ccncc2)cc1F` (centres undefined), the TGI is > 100 µM. The same measure, in the same setting: in the case of `Cc1cccc(O)c(=O)c1` it was > 100 µM.
